This list was built around the results that the source calls inconclusive (neither active nor inactive); the mix of calls is not that of the screen. Where the call is inconclusive, the potency comes from a doubtful curve fit. The source made the active and inactive calls. Calls follow the shape of the dose curve; as a rule, active = well fitted inhibition curve with a large enough effect; inconclusive = small, poorly fitted or top-dose-only effect; inactive = flat fitted curve, though single readings scatter.
Experiment: BET inhibitor-based combinations targeting novel dependencies in MECOM-rearranged (r) AML: AML-194 cell line (AID 2202237; also: nearly all actives have a fitted effect of over 40% in size)
Conditions: AML-194 (MECOM-r AML) viability, CellTiter-Glo, 48 h; series mostly up to 46 µM
Outline: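 Here, 11-point titrations of each agent were applied to 500 seeded cells and incubated 48 hr; CellTiter-Glo signal, scaled against DMSO and empty wells, was integrated as AUC, then Z-scored within the individual line.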
With `Cc1nc2c(-c3cnc(N)nc3)nc(N3CCOCC3)nc2n1C(C)C` the Potency was inconclusive: 0.332 µM [inhibitor, full curve].
For `CS(=O)(=O)N1CCN(Cc2cc3nc(-c4cccc5[nH]ncc45)nc(N4CCOCC4)c3s2)CC1`, the Potency was inconclusive: 1.66 µM [inhibitor, full curve].
For `O=C(NCc1ccccc1)c1csc(Nc2ccncn2)n1`, the Potency was active: 18.6 µM.
For `C[C@H]1O[C@@H](n2cc(F)c(=O)[nH]c2=O)[C@H](O)[C@@H]1O`, the Potency was inconclusive: 18.6 µM [inhibitor, single point].
Potency is read from the fitted curve at half-maximal effect; tags tell the direction and shape of the fitted curve.
